PubChem BioAssay AID1345083 (National Center for Advancing Translational Sciences (NCATS), 2018)
Hit rate of the full screen: of about 94,000 compounds, about 6,200 (6.6%) were called active. The inconclusive results got no clear call from the source; some entries with a clear call stand among them for comparison. The call rests on the fitted dose curve; in most records, active means well fitted inhibition curve with a large enough effect; inconclusive means small, poorly fitted or top-dose-only effect; inactive means flat fitted curve, though single readings scatter. Where the call is inconclusive, the potency comes from a doubtful curve fit.
Potency means the concentration at half of the fitted maximal effect; tags describe the fitted curve by direction and shape.

Experiment: Cytotoxic Profiling in HEK 293 Cell Line of Diverse Libraries Using Quantitative High-Throughput Screening; further: nearly all actives have a fitted effect of over 60% in size
Conditions: HEK 293 viability, ATP luminescence (CellTiter-Glo), 48-72 h; series mostly up to 115 µM
Method in brief: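 Pintool-delivered compounds were incubated with HEK 293 cells (250 cells/well) at 37 degree Celsius for 48 or 72 hr. ATP-dependent luminescence (CellTiter-Glo) then reported remaining viable cells.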
For Cc1nc(N2CC[C@@H](NC(=O)c3cnccn3)[C@H](O)C2)c2ccsc2n1, the Potency was inconclusive: 10 µM [inhibitor, full curve, poor fit].
With O=C(COc1ccccc1F)c1ccc2c(c1)N(CC(=O)N1CCOCC1)C(=O)CO2 the Potency was inconclusive: 89.1 µM [inhibitor, partial curve, poor fit].
For COc1cccc(CCC(=O)NCCC2CCN(C(=O)Nc3ccc(F)cc3F)CC2)c1, the Potency was inconclusive: 89.1 µM [inhibitor, single point].
With Cc1ccc(C2Cn3nnc(C(=O)N4CCN(C(=O)c5cc(Cl)ccc5F)CC4)c3CO2)cc1 (stereo not drawn) the Potency was inconclusive: 8.91 µM [inhibitor, full curve].
For COc1ccccc1C(=O)N1CCCn2nc(C)c(-c3ccccc3-c3ccccc3)c21, the Potency was active: 89.1 µM.
For CN(C)c1ccc(CN2CCCC3(C2)C(=NC2CCCC2)NC(=O)N3c2cccnc2)cc1 (stereo not drawn), the Potency was “inactive”.
For CNC(=O)N1CCCC1c1nc(C2CN(C(=O)c3nccn3C)C2)no1 (stereo not drawn), the Potency was “inactive”.
For Cc1nn(-c2ccccc2)c2c1C(C)N(C1CCN(C(=O)c3cccc(C(F)(F)F)c3)CC1)C2=O (stereo not drawn), the Potency was active: 44.7 µM.
For O=C(NCc1ccccc1F)C1CCCCN1Cc1ccc(-c2cccs2)cc1 (stereo not drawn), the Potency was inconclusive: 50.1 µM [inhibitor, partial curve, poor fit].
In the case of CCOc1cc(=O)n2c(c1C(=O)NCc1cccc(F)c1)CCCCC2, the Potency is reported as “inactive”.
In the case of COc1ccc(Cn2c(C3CCN(C(=O)c4ccc5c(c4)OCO5)CC3)n[nH]c2=O)cc1, the Potency is reported as “inactive”.
In the case of O=C1Nc2ccc(-c3ccccc3)cc2C(=O)N2CCN(C(=O)NC3CCCCC3)C[C@H]12, the Potency is reported as inconclusive: 126 µM [inhibitor, single point].
In the case of C1CC(Cc2noc(C3CCOCC3)n2)CN1 (stereo not drawn), the Potency is reported as active: 79.4 µM.
For COc1ccc(S(=O)(=O)N2CC(c3nc(Cc4cccnc4)no3)C2)cc1, the Potency was inconclusive: 50.1 µM [inhibitor, partial curve, poor fit].
With COCCCN(CCC(=O)NCCC(C)C)C(=O)c1cc(C)oc1C the Potency was inconclusive: 44.7 µM [inhibitor, partial curve, poor fit].
For CC(=O)N1CCC(N2C[C@H](O)C[C@H]2c2nc(-c3ccccc3)no2)CC1, the Potency was “inactive”.
In the case of COC(=O)[C@@H]1Cc2ncn(Cc3ccc(Cl)cc3)c2CN1S(=O)(=O)c1ccc(C#N)cc1, the Potency is reported as “inactive”.
With CC(=O)N1CCC2(CC1)CCN(Cc1cccs1)c1ccccc1O2 the Potency was inconclusive: 50.1 µM [inhibitor, partial curve, poor fit].
For O=C(NCc1cccc(C(F)(F)F)c1)c1ccc2nc(-c3cccnc3)oc2c1, the Potency was “inactive”.
For COc1ccc(C(=O)N2CCC3(CC2)N=C(c2ccccc2)NO3)cc1F, the Potency was “inactive”.
In the case of CC1(c2ccccc2)N(Cc2ccccc2F)C(=O)OC12CCN(Cc1ccc(C#N)cc1)CC2 (stereo not drawn), the Potency is reported as inconclusive: 35.5 µM [inhibitor, full curve, poor fit].
In the case of O=C(NCc1ccc(F)c(F)c1)C1CCCN(Cc2cccc(-c3cccs3)c2)C1 (stereo not drawn), the Potency is reported as active: 5.62 µM.
In the case of Cc1ccc2nc(COCC(=O)N3CCn4nc(CO)cc4C3)[nH]c2c1, the Potency is reported as “inactive”.
With COc1ncccc1CN(Cc1cccnc1OC)C[C@H]1COCc2nc3ccc(C)cc3n21 the Potency was inconclusive: 44.7 µM [inhibitor, partial curve, poor fit].
For CC(C)(C)c1cc(C[C@@H]2C[C@H](NS(C)(=O)=O)C2(C)C)no1, the Potency was inconclusive: 126 µM [inhibitor, single point].
With N#Cc1cccc(-c2c(C(=O)NCc3ccc(F)cc3)nc3sccn23)c1 the Potency was “inactive”.
With COc1ccc(-c2nnc(C[C@@H]3C[C@@H](C(C)C)[C@H](CN4CCN(CCO)CC4)C=C3C)o2)cc1 the Potency was active: 44.7 µM.
In the case of Cc1cc(N2CCNC(c3ccccc3)C2)n2nc(C)c(C)c2n1 (stereo not drawn), the Potency is reported as inconclusive: 39.8 µM [inhibitor, full curve, poor fit].
In the case of CCCOCCCNC(=O)c1c(C)noc1-c1ccccc1Cl, the Potency is reported as “inactive”.
In the case of CC(C)CNc1ccc2c(n1)C(C)(C(=O)NC1CC1)CN(Cc1ccccc1)C2 (stereo not drawn), the Potency is reported as active: 63.1 µM.
With CCC1=C(C(=O)OC)C(c2ccccc2OC)N2C(CC(=O)N3CCC(C)CC3)=CSC2=N1 (stereo not drawn) the Potency was inconclusive: 50.1 µM [inhibitor, partial curve, poor fit].
With O=C(c1ncoc1C1CC1)N1CCOC(c2ccc(Cl)cc2)C1 (stereo not drawn) the Potency was inconclusive: 44.7 µM [inhibitor, partial curve, poor fit].
For COc1ccc(C2=NOC3(CCCN(Cc4ccc(C(F)(F)F)cc4)C3)C2)cc1 (stereo not drawn), the Potency was inconclusive: 25.1 µM [inhibitor, full curve].
With COc1ccc(C(=O)N[C@H]2C[C@@H](Cc3cc(COc4ccccc4)on3)C2(C)C)cc1 the Potency was inconclusive: 28.2 µM [inhibitor, full curve].
With CCOc1cccc(CNC(=O)c2cc3n(n2)CC(c2ccc4c(c2)OCO4)OC3)c1 (stereo not drawn) the Potency was inconclusive: 89.1 µM [inhibitor, single point].
With CC(C)CCN1C(=O)CC[C@]2(C(=O)N3CCC(N4CCCCC4)CC3)CCCC[C@@H]12 the Potency was inconclusive: 89.1 µM [inhibitor, single point].
In the case of CCC(=O)Nc1ccc2nnc(-c3ccc(C(=O)Nc4ccc5c(c4)OCCO5)cc3)n2c1, the Potency is reported as inconclusive: 89.1 µM [inhibitor, single point].
For O=C(CN1C(=O)NC(c2ccc(Cl)cc2)C2=C1COC2=O)Nc1ccc2c(c1)CCC2 (stereo not drawn), the Potency was active: 22.4 µM.
In the case of COC[C@H]1C[C@@H](NCC(C)C)[C@H](O)[C@@H]1O, the Potency is reported as “inactive”.
With Clc1cccc(-c2cnc([C@@H]3COCCN3Cc3ccccc3)[nH]2)c1 the Potency was active: 100 µM.
With COc1ccc(CN2CCOc3ccc(C(=O)NCc4ccccc4F)cc3C2)cc1OC the Potency was inconclusive: 70.8 µM [inhibitor, partial curve, poor fit].
For CCCCn1c(=O)c(C(=O)N2CCN(C(=O)Nc3ccccc3)CC2)nc2cccnc21, the Potency was “inactive”.
For CCc1cccc(NC(=O)Cn2c(=O)c(-c3noc(CC)n3)c3n(c2=O)CCCC3)c1, the Potency was “inactive”.
